Reference: a collection of fitness landscapes (doi:10.1016/j.celrep.2020.107928)
In all, about 81,000 sequences were measured (“one-hybrid fitness for binding parS DNA”: median about -0.17, highest 2% from about 0.51 on). Some of the results follow.

B1: Caulobacter ParB omega fusion; a variant is named by its letters at X, in order, B8GW30 (parent)
chain: MESVVVGEPGMSEGRRGLGRGLSALLGEVDAAPAQAPGEQLGGSREAPIEILQRNPDQPRRTFREEDLEDLSNSIREKGVLQPILVRPSPDTAGEYQIVAGERAWRAAQRAGLKTVPIMVRELDDLAVLEIGIIENVQRADLNVLEEALSYKVLMEKFERTQENIAQTIGKSXSHVANXMRLLXLPDEVQSYLVSGELTAXHARAIAAAADPVALAKQIIEGGLSVRETEALARKAPNLSAGKSKGGRPPRVKDTDTQALESDLSSVLGLDVSIDHRGSTGTLTITYATLEQLDDLCNRLTRGI

Variants of: B1
Assay: one-hybrid fitness for binding parS DNA (scaled: cognate 1, non-cognate 0); higher = stronger binding
Details: with parS DNA site
Method in brief: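 Caulobacter ParB libraries with four specificity codons randomised were screened by bacterial one-hybrid selection in the E. coli USO strain, using a HIS3 reporter whose site lies 19 bp from the promoter. Selection ran for 48 hours at 37°C on M9 lacking histidine, with 0.1 mM IPTG and 5 mM 3-AT. Plasmids were Illumina-sequenced before and after selection, three replicate libraries were pooled, and variants with under 10 reads were dropped. Fitness is the log change in each variant's read ratio to wild type, rescaled against the cognate and non-cognate sites.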

| Variant | one-hybrid fitness for binding parS DNA |
| --- | --- |
| VMMR | ≤ 0.2 |
| TLNK | ≤ 0.2 |
| SCNG | ≤ 0.2 |
| SPET | ≤ 0.2 |
| VHVQ | 0.205 |
| RTAT | 0.918 |
| SCQN | ≤ 0.2 |
| TKGM | ≤ 0.2 |
| WAQI | ≤ 0.2 |
| TMAQ | ≤ 0.2 |
| TSPR | ≤ 0.2 |
| CHPC | ≤ 0.2 |
| SPFD | ≤ 0.2 |
| GTAH | ≤ 0.2 |
| QYNM | ≤ 0.2 |
| HAHL | ≤ 0.2 |
| FRIG | ≤ 0.2 |
| DRWC | ≤ 0.2 |
| HSYN | ≤ 0.2 |
| LLDH | ≤ 0.2 |
| VPWM | ≤ 0.2 |
| TEMC | ≤ 0.2 |
| HDMS | ≤ 0.2 |
| KYMY | ≤ 0.2 |
| RADI | ≤ 0.2 |
| LQPG | ≤ 0.2 |

| Variant | one-hybrid fitness for binding parS DNA |
| --- | --- |
| VDEG | ≤ 0.2 |
| TSRY | ≤ 0.2 |
| CILV | ≤ 0.2 |
| SALQ | ≤ 0.2 |
| YLEN | ≤ 0.2 |
| QLNE | ≤ 0.2 |
| GSAG | ≤ 0.2 |
| IGRM | ≤ 0.2 |
| AGRE | ≤ 0.2 |
| VRVV | ≤ 0.2 |
| GGPV | ≤ 0.2 |
| AMRW | ≤ 0.2 |
| QANP | ≤ 0.2 |
| LHEN | ≤ 0.2 |
| HKNT | ≤ 0.2 |
| NIST | ≤ 0.2 |
| PHVW | ≤ 0.2 |
| GCGG | ≤ 0.2 |
| RFHN | 0.456 |
| LRWR | ≤ 0.2 |
| MLLG | ≤ 0.2 |
| YAMT | ≤ 0.2 |
| CSWW | 0.204 |
| KTSC | ≤ 0.2 |
| CPKG | ≤ 0.2 |
| WSIQ | ≤ 0.2 |

| Variant | one-hybrid fitness for binding parS DNA |
| --- | --- |
| RFRM | 0.378 |
| LLEN | ≤ 0.2 |
| SFCV | ≤ 0.2 |
| QKAT | ≤ 0.2 |
| TDWT | ≤ 0.2 |
| QKMK | ≤ 0.2 |
| AEEL | ≤ 0.2 |
| QTLC | ≤ 0.2 |
| RAGA | 0.595 |
| TACQ | ≤ 0.2 |
| AILY | ≤ 0.2 |
| MRMY | ≤ 0.2 |
| QVTT | ≤ 0.2 |
| PEVW | ≤ 0.2 |
| NAKF | ≤ 0.2 |
| VPKP | ≤ 0.2 |
| HPHG | ≤ 0.2 |
| CGSF | ≤ 0.2 |
| QCCN | ≤ 0.2 |
| YWIE | ≤ 0.2 |
| SRRF | ≤ 0.2 |
| GRME | ≤ 0.2 |
| HTCM | ≤ 0.2 |
| KTPN | ≤ 0.2 |
| EFLV | ≤ 0.2 |
| VWKR | ≤ 0.2 |

| Variant | one-hybrid fitness for binding parS DNA |
| --- | --- |
| AHSA | ≤ 0.2 |
| FPTY | ≤ 0.2 |
| CRNI | ≤ 0.2 |
| NNPY | ≤ 0.2 |
| KPPV | ≤ 0.2 |
| RINV | ≤ 0.2 |
| YSLN | ≤ 0.2 |
| TDSH | ≤ 0.2 |
| RSPI | ≤ 0.2 |
| IIYG | ≤ 0.2 |
| LHKR | ≤ 0.2 |
| NPNS | ≤ 0.2 |
| GWGG | ≤ 0.2 |
| MRYG | ≤ 0.2 |
| IFTW | ≤ 0.2 |
| SPIW | ≤ 0.2 |
| RCSL | ≤ 0.2 |
| PQYR | ≤ 0.2 |
| QGIR | ≤ 0.2 |
| SPNY | ≤ 0.2 |
| QYQC | ≤ 0.2 |
| HYRG | ≤ 0.2 |
| RQIE | ≤ 0.2 |
| VWSS | ≤ 0.2 |
| DLLV | ≤ 0.2 |
| KYTN | ≤ 0.2 |

| Variant | one-hybrid fitness for binding parS DNA |
| --- | --- |
| IKLG | ≤ 0.2 |
| LIPL | ≤ 0.2 |
| RNTW | ≤ 0.2 |
| LQGV | ≤ 0.2 |
| GNVG | ≤ 0.2 |
| HNGM | ≤ 0.2 |
| AEER | ≤ 0.2 |
| DTVT | ≤ 0.2 |
| RSDE | ≤ 0.2 |
| PLVI | ≤ 0.2 |
| CHKT | ≤ 0.2 |
| VPYI | ≤ 0.2 |
| KWER | ≤ 0.2 |
| MSMF | ≤ 0.2 |
| CFLM | ≤ 0.2 |
| SFIG | ≤ 0.2 |
| GTNC | ≤ 0.2 |
| CLAY | ≤ 0.2 |
| IVQG | ≤ 0.2 |
| VTMP | ≤ 0.2 |
| HFYC | ≤ 0.2 |
| YTGW | ≤ 0.2 |
| QYTK | ≤ 0.2 |
| SGHI | ≤ 0.2 |
| PKGE | ≤ 0.2 |
| ISIV | ≤ 0.2 |

| Variant | one-hybrid fitness for binding parS DNA |
| --- | --- |
| ESLV | ≤ 0.2 |
| AYQS | ≤ 0.2 |
| SASF | ≤ 0.2 |
| NALL | ≤ 0.2 |
| TPDE | ≤ 0.2 |
| VHQG | ≤ 0.2 |
| KLHL | ≤ 0.2 |
| ASSV | ≤ 0.2 |
| YQSW | ≤ 0.2 |
| IYSC | ≤ 0.2 |
| RVCI | ≤ 0.2 |
| ARST | ≤ 0.2 |
| LGRH | ≤ 0.2 |
| LCNV | ≤ 0.2 |
| VFET | ≤ 0.2 |
| TYHE | ≤ 0.2 |
| HNNG | ≤ 0.2 |
| MSSE | ≤ 0.2 |
| MDFC | ≤ 0.2 |
| QHHT | ≤ 0.2 |
| HRTS | 0.425 |
| LLQD | ≤ 0.2 |
| QGIM | ≤ 0.2 |
